Experimental data from patent publication US10299477B2 (priority 2015, dated 2019).

Experiments:
Type in all cases: in vivo
Botrytis cinerea = test: Test Example B: Gray mold on tomato; settings: Gray mold on tomato
Description: [Test Example B] Gray Mold on Tomato
Seeds of a test plant (tomato variety: Oogata Fukuju) were planted followed by cultivating until three to five first leaves (true leaves) appeared.

Puccinia recondita = test: Test Example E: Brown rust on wheat; settings: Brown rust on wheat
Description: [Test Example E] Brown Rust on Wheat

[1] = tested on: Blumeria graminis f sp. hordei; test: Test Example D: Powdery mildew on barley; settings: Powdery mildew on barley
Description: [Test Example D] Powdery Mildew on Barley
After the sprayed dilutions were dried, conidia of Blumeria graminis f sp. hordei were inoculated to the plants by shaking off.

Alternaia brassicicola = test: Test Example C: Alternaria sooty spot on cabbage; settings: Alternaria sooty spot on cabbage
Description: [Test Example C] Alternaria Sooty Spot on Cabbage
Seeds of a test plant (cabbage variety: Shikidori) were planted followed by cultivating until the cotyledons extended.

Structure (SMILES) | Test B control value (Botrytis cinerea) | Test E control value (Puccinia recondita) | Test D control value [1] | Test C control value (Alternaia brassicicola)
CCn1c(-c2c(F)cccc2F)c(-c2ccccc2I)cc(Cl)c1=O [Compound 112] | H (H shows more than 50% of control values) | H (H shows more than 50% of control values) | H (H shows more than 50% of control values) | H (H shows more than 50% of control values)
CCn1c(-c2c(F)cccc2F)c(-c2cccc(OCOC)c2)ccc1=O [Compound 101] | H (H shows more than 50% of control values) | H (H shows more than 50% of control values) | H (H shows more than 50% of control values) | H (H shows more than 50% of control values)
Cn1c(-c2ncc(Cl)cc2Cl)c(-c2ccc(F)cc2)cc(Br)c1=O [Compound 22] | H (H shows more than 50% of control values) | H (H shows more than 50% of control values) | H (H shows more than 50% of control values) | H (H shows more than 50% of control values)
CCn1c(-c2c(F)cccc2F)c(-c2c(F)ccc(OC)c2F)ccc1=O [Compound 104] | H (H shows more than 50% of control values) | H (H shows more than 50% of control values) | H (H shows more than 50% of control values) | H (H shows more than 50% of control values)
CCn1c(-c2c(F)cccc2F)c(-c2ccccc2)ccc1=O [Compound 46] | H (H shows more than 50% of control values) | H (H shows more than 50% of control values) | H (H shows more than 50% of control values) | H (H shows more than 50% of control values)
CCn1c(-c2c(F)cccc2F)c(-c2cc(OC)cc(OC)c2Br)ccc1=O [Compound 16] | H (H shows more than 50% of control values) | H (H shows more than 50% of control values) | H (H shows more than 50% of control values) | H (H shows more than 50% of control values)
CCn1c(-c2c(F)cccc2F)c(-c2cc(OC)ccc2F)cc(Cl)c1=O [Compound 92] | H (H shows more than 50% of control values) | H (H shows more than 50% of control values) | H (H shows more than 50% of control values) | H (H shows more than 50% of control values)
CCN1C(=O)CCC(c2cc(OC)ccc2Cl)=C1c1c(F)cccc1F [Compound 52, 5-(2-chloro-5-methoxyphenyl)-6-(2,6-difluorophenyl)-1-ethyl-3,4-dihydropyridine-2(1H)-one] | H (H shows more than 50% of control values) | H (H shows more than 50% of control values) | H (H shows more than 50% of control values) | H (H shows more than 50% of control values)
CCn1c(-c2c(F)cccc2F)c(-c2c(Cl)c(OC)cc(OC)c2Br)cc(Cl)c1=O [Compound 69] | H (H shows more than 50% of control values) | L (L shows 50% or less of control values) | L (L shows 50% or less of control values) | L (L shows 50% or less of control values)
CCn1c(-c2c(F)cccc2F)c(-c2ccccc2I)cc(Br)c1=O [Compound 113] | H (H shows more than 50% of control values) | H (H shows more than 50% of control values) | H (H shows more than 50% of control values) | H (H shows more than 50% of control values)
CCn1c(-c2c(F)cccc2F)c(-c2cc(Cl)ccc2OC)cc(Cl)c1=O [Compound 124] | H (H shows more than 50% of control values) | H (H shows more than 50% of control values) | H (H shows more than 50% of control values) | H (H shows more than 50% of control values)
CCn1c(-c2c(F)cc(OC)cc2F)c(-c2cc(OC)cc(OC)c2)ccc1=O [Compound 71] | H (H shows more than 50% of control values) | H (H shows more than 50% of control values) | H (H shows more than 50% of control values) | H (H shows more than 50% of control values)
COc1cc(F)c(-c2c(-c3ccc(F)cc3Cl)ccc(=O)n2CCF)c(F)c1 [Compound 45] | H (H shows more than 50% of control values) | H (H shows more than 50% of control values) | H (H shows more than 50% of control values) | H (H shows more than 50% of control values)
CN1C(=O)CCC(c2ccc(F)cc2)=C1c1ncc(Cl)cc1Cl [Compound 21] | H (H shows more than 50% of control values) | H (H shows more than 50% of control values) | H (H shows more than 50% of control values) | H (H shows more than 50% of control values)
Cn1c(-c2c(F)cccc2F)c(-c2ccccc2)cc(Cl)c1=O [Compound 49] | H (H shows more than 50% of control values) | H (H shows more than 50% of control values) | L (L shows 50% or less of control values) | H (H shows more than 50% of control values)
COc1cc(-c2ccc(=O)n(C)c2-c2c(F)cccc2F)cc(OC)c1Cl [Compound 31] | H (H shows more than 50% of control values) | H (H shows more than 50% of control values) | H (H shows more than 50% of control values) | H (H shows more than 50% of control values)
COc1ccc(F)c(-c2ccc(=O)n(C)c2-c2c(F)cccc2F)c1F [Compound 108] | H (H shows more than 50% of control values) | H (H shows more than 50% of control values) | H (H shows more than 50% of control values) | H (H shows more than 50% of control values)
CCn1c(-c2ncc(Cl)cc2Cl)c(-c2c(F)cccc2F)ccc1=O [Compound 6] | H (H shows more than 50% of control values) | H (H shows more than 50% of control values) | H (H shows more than 50% of control values) | H (H shows more than 50% of control values)
COc1cc(OC)cc(-c2ccc(=O)n(C)c2-c2c(F)cc(OC)cc2F)c1 [Compound 80] | H (H shows more than 50% of control values) | H (H shows more than 50% of control values) | H (H shows more than 50% of control values) | H (H shows more than 50% of control values)
CCn1c(-c2c(F)cccc2F)c(-c2ccccc2Br)ccc1=O [Compound 85] | H (H shows more than 50% of control values) | H (H shows more than 50% of control values) | H (H shows more than 50% of control values) | H (H shows more than 50% of control values)
COc1ccc(F)c(-c2cc(Br)c(=O)n(C)c2-c2c(F)cccc2F)c1 [Compound 90] | H (H shows more than 50% of control values) | H (H shows more than 50% of control values) | H (H shows more than 50% of control values) | H (H shows more than 50% of control values)
CCn1c(-c2c(F)cccc2F)c(-c2ccccc2)cc(Br)c1=O [Compound 50] | H (H shows more than 50% of control values) | L (L shows 50% or less of control values) | L (L shows 50% or less of control values) | H (H shows more than 50% of control values)
CCn1c(-c2c(F)cccc2F)c(-c2cc(OC)ccc2Cl)ccc1=O [Compound 53, 5-(2-chloro-5-methoxyphenyl)-6-(2,6-difluorophenyl)-1-ethylpyridine-2(1H)-one] | H (H shows more than 50% of control values) | H (H shows more than 50% of control values) | H (H shows more than 50% of control values) | H (H shows more than 50% of control values)
Cn1c(-c2ncc(Cl)cc2Cl)c(-c2c(F)cccc2F)ccc1=O [Compound 5] | H (H shows more than 50% of control values) | H (H shows more than 50% of control values) | H (H shows more than 50% of control values) | H (H shows more than 50% of control values)
CCN1C(=O)CCC(c2cc(OC)cc(OC)c2)=C1c1c(F)cccc1F [Compound 15] | H (H shows more than 50% of control values) | H (H shows more than 50% of control values) | H (H shows more than 50% of control values) | H (H shows more than 50% of control values)
CCn1c(-c2c(F)cccc2F)c(-c2ccccc2Br)cc(Cl)c1=O [Compound 86] | H (H shows more than 50% of control values) | H (H shows more than 50% of control values) | H (H shows more than 50% of control values) | H (H shows more than 50% of control values)
